Drawing on article PMC6570896, this text covers binding for three substances.

By UniProt entry, the sequences of proteins in these tests, tags left out.
UniProt Q9FXM3: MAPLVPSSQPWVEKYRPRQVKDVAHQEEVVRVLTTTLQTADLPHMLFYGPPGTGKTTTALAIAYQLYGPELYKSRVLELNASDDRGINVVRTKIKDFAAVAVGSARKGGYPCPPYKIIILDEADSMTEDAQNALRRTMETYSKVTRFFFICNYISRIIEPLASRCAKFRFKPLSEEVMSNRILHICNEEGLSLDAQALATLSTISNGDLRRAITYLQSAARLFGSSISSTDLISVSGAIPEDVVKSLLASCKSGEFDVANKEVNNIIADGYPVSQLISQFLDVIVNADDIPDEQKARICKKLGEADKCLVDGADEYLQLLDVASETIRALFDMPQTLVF
UniProt Q9M7Q7: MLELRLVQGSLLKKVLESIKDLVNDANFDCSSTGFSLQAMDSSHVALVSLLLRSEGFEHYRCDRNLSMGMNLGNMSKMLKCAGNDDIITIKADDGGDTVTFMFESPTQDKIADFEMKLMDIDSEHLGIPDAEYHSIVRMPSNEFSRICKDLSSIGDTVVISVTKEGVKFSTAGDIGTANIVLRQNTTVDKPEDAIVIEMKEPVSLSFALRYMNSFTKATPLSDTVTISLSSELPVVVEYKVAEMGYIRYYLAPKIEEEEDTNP
UniProt Q9ZW35: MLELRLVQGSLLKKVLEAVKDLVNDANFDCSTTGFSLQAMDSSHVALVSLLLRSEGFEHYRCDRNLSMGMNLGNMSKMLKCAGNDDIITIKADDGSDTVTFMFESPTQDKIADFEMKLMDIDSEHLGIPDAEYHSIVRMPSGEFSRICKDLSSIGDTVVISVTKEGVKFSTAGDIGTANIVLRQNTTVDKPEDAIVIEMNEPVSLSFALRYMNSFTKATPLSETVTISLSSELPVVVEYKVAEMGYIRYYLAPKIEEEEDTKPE
UniProt P17070: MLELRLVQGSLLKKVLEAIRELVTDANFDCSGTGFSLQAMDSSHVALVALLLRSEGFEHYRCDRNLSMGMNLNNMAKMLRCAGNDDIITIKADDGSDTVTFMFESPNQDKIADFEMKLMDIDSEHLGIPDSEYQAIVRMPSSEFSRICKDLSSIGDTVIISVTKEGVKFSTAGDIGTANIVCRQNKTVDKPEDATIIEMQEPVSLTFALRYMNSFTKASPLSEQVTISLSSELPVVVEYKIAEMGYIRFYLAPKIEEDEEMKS

Results are given in words; binding and its absence hold for the method and conditions named. In cells and extracts the contact can be indirect. Some results given as binding are weak or reduced against the parent protein; the word gives no strength. For part of these data: Tags and fused reporters may be left off the sequences shown.

Assay in all cases: split reporter; BiFC: fusions to YFP^N (1-155 aa) and YFP^C (156-239 aa) co-expressed transiently in Nicotiana benthamiana leaf epidermal cells; YFP seen by confocal microscopy
Test [1] addresses T1, AtRFC2 without the N-terminal 224 aa (Arabidopsis thaliana) (UniProt Q9CAM7).
T1 sequence: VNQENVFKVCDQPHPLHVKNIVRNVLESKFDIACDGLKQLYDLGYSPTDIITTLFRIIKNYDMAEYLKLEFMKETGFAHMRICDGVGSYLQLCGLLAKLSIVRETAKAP

Test [2] has as its target T2, AtRFC2 Δ294–333 (Arabidopsis thaliana) (UniProt Q9CAM7).
T2 sequence: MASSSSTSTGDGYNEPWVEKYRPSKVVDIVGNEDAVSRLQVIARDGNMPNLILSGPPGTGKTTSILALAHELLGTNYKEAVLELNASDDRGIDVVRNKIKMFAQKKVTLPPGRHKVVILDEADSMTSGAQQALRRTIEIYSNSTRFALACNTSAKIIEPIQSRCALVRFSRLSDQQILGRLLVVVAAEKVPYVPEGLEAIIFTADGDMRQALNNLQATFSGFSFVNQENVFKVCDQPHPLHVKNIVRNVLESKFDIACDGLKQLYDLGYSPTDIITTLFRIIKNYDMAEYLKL

The target in test [3] is T3, AtRFC2 Δ314–333 (Arabidopsis thaliana) (UniProt Q9CAM7).
T3 sequence: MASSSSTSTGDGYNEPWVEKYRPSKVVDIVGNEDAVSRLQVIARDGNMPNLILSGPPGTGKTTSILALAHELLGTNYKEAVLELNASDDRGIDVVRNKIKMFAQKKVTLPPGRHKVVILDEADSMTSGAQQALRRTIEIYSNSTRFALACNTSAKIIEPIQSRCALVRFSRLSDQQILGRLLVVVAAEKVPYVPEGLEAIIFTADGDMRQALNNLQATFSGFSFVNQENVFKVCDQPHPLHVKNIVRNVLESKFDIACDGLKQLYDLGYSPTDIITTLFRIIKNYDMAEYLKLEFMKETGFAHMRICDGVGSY

Test [4] addresses T4, AtRFC4 Δ1–213 (Arabidopsis thaliana) (UniProt Q93ZX1).
T4 sequence: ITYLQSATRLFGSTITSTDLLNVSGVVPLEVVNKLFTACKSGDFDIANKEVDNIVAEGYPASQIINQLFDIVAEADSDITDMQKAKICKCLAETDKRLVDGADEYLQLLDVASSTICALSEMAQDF

Test [5] has as its target AtRFC4 Δ320–339 (Arabidopsis thaliana) (UniProt Q93ZX1).
Test [6] addresses AtRFC4 ΔC300–339 (Arabidopsis thaliana) (UniProt Q93ZX1).
Test [7] deals with AtRFC4-YFP^N (Arabidopsis thaliana) (UniProt Q93ZX1).
Test [8] has as its target T5, OsRFC1-YFP^N (rice (Oryza sativa)) (UniProt Q2R2B4).
T5 sequence: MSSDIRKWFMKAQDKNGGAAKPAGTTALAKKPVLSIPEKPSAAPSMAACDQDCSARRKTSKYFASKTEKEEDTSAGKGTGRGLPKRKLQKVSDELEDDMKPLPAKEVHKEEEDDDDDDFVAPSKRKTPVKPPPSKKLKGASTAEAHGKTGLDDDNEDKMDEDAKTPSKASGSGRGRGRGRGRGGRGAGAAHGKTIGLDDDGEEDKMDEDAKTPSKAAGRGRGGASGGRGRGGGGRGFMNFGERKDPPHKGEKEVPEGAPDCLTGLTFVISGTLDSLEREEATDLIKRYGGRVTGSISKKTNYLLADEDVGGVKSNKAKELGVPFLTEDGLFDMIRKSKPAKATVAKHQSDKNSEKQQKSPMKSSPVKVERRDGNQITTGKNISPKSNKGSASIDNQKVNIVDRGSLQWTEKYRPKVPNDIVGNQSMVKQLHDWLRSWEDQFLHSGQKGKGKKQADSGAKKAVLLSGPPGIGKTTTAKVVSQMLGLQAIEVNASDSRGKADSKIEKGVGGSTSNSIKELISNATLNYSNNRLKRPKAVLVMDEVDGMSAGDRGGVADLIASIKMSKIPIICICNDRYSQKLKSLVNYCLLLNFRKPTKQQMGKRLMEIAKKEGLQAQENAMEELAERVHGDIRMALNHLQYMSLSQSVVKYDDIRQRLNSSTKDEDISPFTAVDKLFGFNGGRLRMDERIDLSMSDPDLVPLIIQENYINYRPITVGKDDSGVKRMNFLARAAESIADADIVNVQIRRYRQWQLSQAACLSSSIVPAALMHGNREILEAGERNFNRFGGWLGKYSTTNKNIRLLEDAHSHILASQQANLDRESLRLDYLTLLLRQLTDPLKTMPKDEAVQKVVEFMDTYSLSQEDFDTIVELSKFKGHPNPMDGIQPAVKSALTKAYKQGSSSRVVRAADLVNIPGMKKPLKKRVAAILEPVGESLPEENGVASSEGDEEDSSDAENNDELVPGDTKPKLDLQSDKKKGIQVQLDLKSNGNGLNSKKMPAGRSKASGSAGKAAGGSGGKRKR

The target of test [9] is OsRFC2-YFP^N (rice (Oryza sativa)) (UniProt Q9FXM3).

As for “AtPCNA1-YFP^C (from UniProt Q9M7Q7 1-263)”, the binding result is listed as “binds” in [1]; “no binding” in test [2]; “binds” in test [3]; “binds” in test [4]; “binds” in [5]; “no binding” in test [6]. In addition, the binding entry in [7], in test [8] and in [9] was “binds” throughout.
“AtPCNA2-YFP^C (from UniProt Q9ZW35 1-264)”: the binding entry in test [1] is recorded as “binds”; in test [2], “no binding”; in test [3], “binds”; in test [4], “binds”; in [5], “binds”; in test [6], “no binding”. In addition, the binding result in test [7], in test [8] and in [9] was “binds” throughout.
Consider “OsPCNA-YFP^C (from UniProt P17070 1-263)”, for which the binding entry in test [7], in test [8] and in [9] was “binds” in each case.
